According to PubChem BioAssay AID1347165 (National Center for Advancing Translational Sciences (NCATS), 2019):
Screen size: about 220,000 compounds; about 5,700 (2.6%) were called active. Inconclusive means that the source gave no clear call. Such entries were picked first, then a sample of the others. Calls follow the shape of the dose curve; as a rule, active = well fitted inhibition curve with a large enough effect; inconclusive = small, poorly fitted or top-dose-only effect; inactive = no such curve, though single readings can be large or run the other way. A potency beside an inconclusive call is a rough fit, not a confirmed value.
Also: nearly all actives have a fitted effect of over 70% in size.
For activity change, negative = inhibition in this document: 0% is about no effect.
Potency is read from the fitted curve at half-maximal effect; tags tell the direction and shape of the fitted curve.

Each compound was assayed against Lysine-specific demethylase 5B (Homo sapiens) (UniProt Q9UGL1) (assay: Primary screen for KDM5B Histone Demethylases FDH-coupled qHTS). Conditions: FDH-coupled NADH fluorescence (FDH is formaldehyde dehydrogenase); activity change, negative = inhibition: at 57.7 µM (top of the series) unless noted.
Sequence of UniProt Q9UGL1 (Q9UGL1 whole entry, looked up): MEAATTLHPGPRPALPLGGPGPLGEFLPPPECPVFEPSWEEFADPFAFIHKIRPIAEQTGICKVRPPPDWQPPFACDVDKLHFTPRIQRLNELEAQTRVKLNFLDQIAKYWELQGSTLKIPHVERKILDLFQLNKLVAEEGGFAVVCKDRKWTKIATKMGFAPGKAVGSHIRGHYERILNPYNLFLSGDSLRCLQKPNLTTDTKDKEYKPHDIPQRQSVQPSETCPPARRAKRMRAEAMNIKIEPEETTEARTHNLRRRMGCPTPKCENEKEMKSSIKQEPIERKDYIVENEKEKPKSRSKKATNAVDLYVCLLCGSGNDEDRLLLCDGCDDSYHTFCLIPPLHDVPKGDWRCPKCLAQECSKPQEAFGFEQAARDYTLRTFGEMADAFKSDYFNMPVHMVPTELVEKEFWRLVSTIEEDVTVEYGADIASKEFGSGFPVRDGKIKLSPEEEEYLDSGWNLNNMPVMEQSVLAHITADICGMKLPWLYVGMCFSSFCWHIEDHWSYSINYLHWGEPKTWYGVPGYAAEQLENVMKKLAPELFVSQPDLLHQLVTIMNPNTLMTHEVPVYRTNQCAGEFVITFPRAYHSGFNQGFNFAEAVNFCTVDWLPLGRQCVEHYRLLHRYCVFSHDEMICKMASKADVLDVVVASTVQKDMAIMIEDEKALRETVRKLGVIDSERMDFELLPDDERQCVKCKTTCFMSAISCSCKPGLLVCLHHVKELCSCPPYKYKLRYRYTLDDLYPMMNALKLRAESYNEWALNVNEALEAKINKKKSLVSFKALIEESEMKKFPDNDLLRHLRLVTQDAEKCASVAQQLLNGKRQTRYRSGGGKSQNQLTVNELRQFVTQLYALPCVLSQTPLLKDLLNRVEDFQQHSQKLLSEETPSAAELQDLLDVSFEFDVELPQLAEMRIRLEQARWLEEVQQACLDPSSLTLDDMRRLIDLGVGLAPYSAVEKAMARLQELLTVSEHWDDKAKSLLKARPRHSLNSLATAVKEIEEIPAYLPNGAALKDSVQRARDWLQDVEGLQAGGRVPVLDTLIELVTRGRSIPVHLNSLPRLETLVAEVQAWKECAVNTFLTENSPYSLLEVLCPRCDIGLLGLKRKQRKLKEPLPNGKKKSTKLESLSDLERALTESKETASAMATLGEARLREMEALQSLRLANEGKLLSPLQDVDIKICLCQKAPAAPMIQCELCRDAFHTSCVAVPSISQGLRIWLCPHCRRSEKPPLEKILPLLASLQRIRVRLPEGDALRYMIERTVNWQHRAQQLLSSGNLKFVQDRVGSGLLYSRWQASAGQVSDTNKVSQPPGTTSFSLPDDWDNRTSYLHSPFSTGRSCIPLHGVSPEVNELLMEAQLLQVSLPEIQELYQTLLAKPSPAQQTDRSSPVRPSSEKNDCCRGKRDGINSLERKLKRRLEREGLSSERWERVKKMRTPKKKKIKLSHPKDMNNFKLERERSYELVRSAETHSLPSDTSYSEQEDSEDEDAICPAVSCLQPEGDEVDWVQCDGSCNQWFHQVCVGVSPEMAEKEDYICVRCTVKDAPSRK
Method in brief: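 KDM5BΔAP (200 nM final) in 50 mM HEPES pH 7.5, 0.01% Tween-20 was preincubated 10 min at RT with compound over a concentration range. Substrate mix (H3K4me3 12.5 µM, α-KG 25 µM, Fe²⁺, ascorbate, NAD⁺, FDH) was added, and NADH fluorescence change over 30 min gave dose-response curves.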
`NC(=O)c1ccc2[nH]c(CN3CCC(Oc4ncccn4)CC3)cc(=O)c2c1` was tested, and the Potency was inconclusive: 31.6 µM [inhibitor, partial curve, poor fit].
In the case of `CC1CCN(C(=O)C(=O)N2CCN(c3nc(C(C)C)c4c(c3C#N)CCCC4)CC2)CC1`, the Potency is reported as inconclusive: 25.1 µM [inhibitor, partial curve, poor fit].
For `CN(C)c1ccc(CN2CCOC[C@H]2c2ncc(-c3cccc(Cl)c3)[nH]2)cc1`, the Potency was inconclusive: 50.1 µM [inhibitor, single point].
`Cn1c(=O)n(C)c2cc(N3CCOCC3)c(NS(=O)(=O)c3cccc(C#N)c3)cc21` was tested, and the Potency was inconclusive: 17.8 µM [inhibitor, partial curve, poor fit].
For `CC(=O)c1ccc(-n2cc(-c3ccccc3)cc2-c2ccccc2)cc1`, the Potency was inconclusive: 39.8 µM [inhibitor, single point].
`COCCCn1c(C)cc(C(=O)N2CCCC(c3[nH]ccc3C(N)=O)C2)c1C` (stereo not given) was tested, and the Potency was active: 17.8 µM.
For `CC(=O)Oc1ccc(OC(C)=O)c2ccccc12`, the Potency was inconclusive: 11.2 µM [inhibitor, partial curve, poor fit].
`CC(C)n1nc(C(=O)N2CCc3ccccc3C2)c2ccccc2c1=O` was tested, and the “activity change, negative = inhibition” value was inactive: 6.98%.
With `Cc1oc2cc(OC(=O)c3ccc4c(c3)OCO4)ccc2c(=O)c1-c1ccccc1` the “activity change, negative = inhibition” value was inactive: 4.61%.
`COc1ccc(-n2c(SCC(=O)NCc3ccc(F)cc3)nc3c([nH]c4ccccc43)c2=O)cc1` was tested, and the Potency was inconclusive: 12.6 µM [inhibitor, partial curve, poor fit].
`CCCC(=O)Nc1nn2c(CC(C)C)nnc2s1` was tested, and the “activity change, negative = inhibition” value was inactive: -0.584%.
For `O=C(CCSCc1cccc(Cl)c1)NCCc1ccc(Cl)cc1`, the activity change, negative = inhibition was inconclusive: -33.2% [inhibitor].
`COc1nccnc1NC1CCN(C(=O)NC2CCCC2)CC1` was tested, and the Potency was active: 28.2 µM.
For `CC1CCCN(c2nc3c(c(=O)n(C)c(=O)n3C)n2CC(=O)O)C1` (stereo not given), the “activity change, negative = inhibition” value was inactive: -1.5%.
For `O=C(Nc1ccc2oc(=O)ccc2c1)c1ccccc1`, the Potency was inconclusive: 25.1 µM [inhibitor, partial curve, poor fit].
In the case of `CCn1cc(C(=O)NCCO)c(=O)c2cc(F)c(N3CCN(C)CC3)cc21`, the Potency is reported as inconclusive: 25.1 µM [inhibitor, partial curve, poor fit].
For `COc1ccc(NC(=O)c2cnc(N3CCCC3)nc2)cc1OC`, the Potency was inconclusive: 39.8 µM [inhibitor, single point].
In the case of `Cc1ccc(-c2nn(CCC(=O)NN3CCOCC3)c(=O)c3ccccc23)cc1`, the “activity change, negative = inhibition” value is reported as inactive: 25.6%.
For `N#C/C(=C\c1ccc(OC(=O)c2ccc(Cl)cc2)cc1)C(=O)Nc1ccccc1C(F)(F)F`, the Potency was inconclusive: 15.8 µM [inhibitor, partial curve, poor fit].
In the case of `CC1(C)CN(Cc2cn(Cc3ccccc3)nc2-c2cc3ccccc3o2)CCO1`, the Potency is reported as inconclusive: 28.2 µM [inhibitor, partial curve, poor fit].
With `N#C/C(=C(/O)c1ccc(Cl)cc1)c1nc2ccccc2[nH]1` the Potency was inconclusive: 20 µM [inhibitor, single point].
`CC(C)(C)NC(=O)CC1(C(=O)N2CCC(c3c[nH]c4ccccc34)CC2)CCCC1` was tested, and the “activity change, negative = inhibition” value was inactive: 25%.
`CCc1cccc2c(C(CC(=O)N3CCC(C)CC3)c3cccc(C)c3)c[nH]c12` (stereo not given) was tested, and the Potency was inconclusive: 15.8 µM [inhibitor, single point].
In the case of `COc1ccc(-c2cc(C(=O)N3CCCCCC3)c3ccccc3n2)cc1`, the Potency is reported as inconclusive: 25.1 µM [inhibitor, partial curve, poor fit].
`Cn1cnc(S(=O)(=O)N2CC[C@@H]3C(=O)NCCCCCCN(Cc4ccncc4)[C@@H]3C2)c1` was tested, and the “activity change, negative = inhibition” value was inactive: -5.94%.
For `COc1ccc(C(=O)NC2CCN(c3cc(-c4cccs4)[nH]n3)C2)c(OC)c1` (stereo not given), the Potency was inconclusive: 17.8 µM [inhibitor, partial curve, poor fit].
`Cc1cc(C(=O)NNC(=O)Nc2ccc(Cl)cc2)no1` was tested, and the “activity change, negative = inhibition” value was inactive: 0.35%.
`Cc1csc2nc(COC(=O)c3ccc(NC(=O)C(C)Oc4ccccc4)cc3)cc(=O)n12` (stereo not given) was tested, and the Potency was inconclusive: 4.47 µM [inhibitor, partial curve, poor fit].
In the case of `O=C(NC1CCCNC1)C1CCN(c2nc(-c3ccccc3)nc3c2CCC3)CC1` (stereo not given), the Potency is reported as inconclusive: 22.4 µM [inhibitor, partial curve, poor fit].
With `Cc1cc2nc(-c3ccc(=O)[nH]c3)n(Cc3ccccc3)c2cc1C` the Potency was inconclusive: 15.8 µM [inhibitor, partial curve, poor fit].
For `Cc1cc(C(=O)Nc2ccc(Cl)cc2)on1`, the Potency was inconclusive: 25.1 µM [inhibitor, single point].
For `O=C(c1ccc2ccccc2n1)N1CCN(C(=O)c2nnn3c2COC(c2ccccc2)C3)CC1` (stereo not given), the “activity change, negative = inhibition” value was inactive: 21.3%.
`CCCN1CCN(C(=O)c2c(C)sc3ccn(CC(C)C)c(=O)c23)CC1` was tested, and the Potency was inconclusive: 20 µM [inhibitor, partial curve].
With `Cc1ccc(-c2cc(C(=O)NCCCc3[nH]nc(N)c3C#N)c3ccccc3n2)o1` the “activity change, negative = inhibition” value was inactive: 32.5%.
For `Cc1ccc(-c2csc(-c3ccccc3N)n2)cc1`, the “activity change, negative = inhibition” value was inactive: -17.4%.
With `Cc1cccc(Cn2c(=O)n(-c3ccccc3C)c(=O)c3c2c2cc(C)ccc2n3C)c1` the Potency was inconclusive: 3.98 µM [inhibitor, full curve, poor fit].
For `CN(C)C[C@@H]1CN(c2ccccn2)C[C@H]1NC(=O)NC(C)(C)C`, the Potency was active: 31.6 µM.
For `COc1ccc(CN[C@H]2[C@H](O)[C@H](O)C[C@@H]2c2ccc(N3CCOCC3)nc2)cn1`, the Potency was active: 31.6 µM.
`COc1ccc(-c2cc(-c3ccccc3)nc3c(C)noc23)cc1OC` was tested, and the Potency was active: 25.1 µM.
With `COCCN1C(=O)[C@H]2CN(Cc3ccccc3C(F)(F)F)C[C@H]2C1=O` the “activity change, negative = inhibition” value was inactive: 14.3%.
`COc1ccc(C(=O)NC2CCN(c3cc(-c4ccccc4)[nH]n3)C2)c(C)c1` (stereo not given) was tested, and the Potency was inconclusive: 5.01 µM [inhibitor, partial curve, poor fit].
In the case of `Cc1ccc2nc(-c3ccccn3)c(Nc3ccccc3C)n2c1`, the Potency is reported as inconclusive: 31.6 µM [inhibitor, single point].
For `CCCN1CCc2nc(N3CCN(C)CC3)ncc2C1`, the Potency was inconclusive: 8.91 µM [inhibitor, partial curve, poor fit].
With `Brc1ccccc1CN1CCN(Cc2c[nH]c3ccccc23)CC1` the Potency was inconclusive: 2.24 µM [inhibitor, full curve, poor fit].
For `CCN(CC)c1nn2c(=O)c(C(=O)NCCc3cccc(C)c3)cnc2s1`, the Potency was inconclusive: 31.6 µM [inhibitor, partial curve, poor fit].
With `O=C(NC1CCCc2c1[nH]c1c(Cl)cccc21)c1ccccn1` (stereo not given) the Potency was inconclusive: 8.91 µM [inhibitor, partial curve].
`CC(C)c1ccc2oc(-c3cc(N)ccc3O)nc2c1` was tested, and the Potency was inconclusive: 1.78 µM [inhibitor, partial curve, poor fit].
`Cc1c(Cl)cccc1NC(=O)Cn1cc(C#N)c2ccccc21` was tested, and the “activity change, negative = inhibition” value was inactive: 4.46%.
With `CN1CC(=O)N(c2cccnc2)Cc2c(NCC3CC3)ncnc21` the Potency was inconclusive: 28.2 µM [inhibitor, single point].
For `CC(C)(C)C(=O)N(c1ccc(F)cc1)C1C=CS(=O)(=O)C1` (stereo not given), the “activity change, negative = inhibition” value was inactive: 10.6%.
`CCN(CC)C(=O)[C@@H](C)C1CC[C@@]2(C)Cc3sc(Nc4c(Cl)cccc4Cl)nc3[C@@H](C)[C@@H]2[C@H]1O` (stereo not given in full) was tested, and the “activity change, negative = inhibition” value was inactive: -27.4%.
With `O=Cc1cc(O)ccc1Br` the Potency was inconclusive: 31.6 µM [inhibitor, partial curve, poor fit].
With `COc1ccc(-c2cc(C[C@@H]3CC[C@H](O)[C@@H](CNC(=O)c4ccc5c(c4)OCO5)O3)no2)cc1` the Potency was inconclusive: 39.8 µM [inhibitor, single point].
`O=C(O)C(c1c[nH]c2cc(F)ccc12)N1CCN(C2=Nc3ccccc3Oc3ccccc32)CC1` (stereo not given) was tested, and the “activity change, negative = inhibition” value was inactive: -16%.
`COCC1CN(C2CCC2)CC12CCN(C(=O)C1CCN(C(C)=O)CC1)CC2` (stereo not given) was tested, and the Potency was inconclusive: 14.1 µM [inhibitor, partial curve, poor fit].
For `CCCCCCOc1ccc(C(=O)/C=C/C(=O)O)cc1`, the Potency was inconclusive: 10 µM [inhibitor, partial curve, poor fit].
In the case of `CC(=O)N1CCCN(C(=O)Cc2nc(-c3cccs3)oc2C)CC1`, the Potency is reported as inconclusive: 28.2 µM [inhibitor, partial curve, poor fit].
For `Cc1cccc(CC(=O)N2CCCN(c3cc(-c4ccc(Cl)cc4)[nH]n3)CC2)c1`, the Potency was inconclusive: 14.1 µM [inhibitor, partial curve, poor fit].
For `O=C(c1nccc2ccccc12)N1CCc2c(nc3cc(-c4ccccc4)[nH]n3c2=O)C1`, the Potency was inconclusive: 28.2 µM [inhibitor, single point].
`CCOC(=O)Cn1c(=O)n(CC2CCCO2)c2nc(-c3cc(OC)ccc3OC)nc(C(N)=O)c21` (stereo not given) was tested, and the Potency was inconclusive: 3.16 µM [inhibitor, full curve, poor fit].
`CCCOc1ccc(C(=O)N(Cc2ccco2)Cc2ccco2)cc1` was tested, and the Potency was inconclusive: 31.6 µM [inhibitor, single point].
`Cc1cc(-c2ccccc2)n2ncnc2n1` was tested, and the Potency was inconclusive: 25.1 µM [inhibitor, single point].
`Cc1ccc2oc([C@H]3CCN(Cc4cccc(Cl)c4)C3)nc2c1` was tested, and the Potency was inconclusive: 31.6 µM [inhibitor, partial curve, poor fit].
With `CN(Cc1cccs1)C(=O)C1CC=CCC1c1nc2ccccc2s1` (stereo not given) the “activity change, negative = inhibition” value was inactive: 4.82%.
In the case of `COc1ccc(NC(=O)CCn2cnc3onc(-c4ccc(F)cc4)c3c2=O)cc1OC`, the Potency is reported as inconclusive: 15.8 µM [inhibitor, partial curve, poor fit].
